Reference: the supplement of paper PMC11417369
± gives the standard deviation of the averaged measurements. Some of the results follow.

What follows are sequences tested on PfAP2-I AP2 domain 3 (GST-tagged) (assay: gcPBM binding intensity (ln(normalized median fluorescence intensity)); higher = stronger DNA binding).
Outline: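 Each value is the highest Masliner-normalised natural-log median intensity across replicate spots of either orientation of a probe. The probes were primer-extended double-stranded 36-bp intergenic genomic sequences on an Agilent 4 × 180k array, alongside negative controls, exposed for 1 h to GST-tagged P. falciparum DNA-binding domains expressed in E. coli. Bound protein was picked up with Alexa488 anti-GST antibody and scanned at 488 nm.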

Sequence | gcPBM binding intensity (ln)
TGTGCAAGATTTTTCTGTACATATATATAAATATAT [XGTACX_site1796] | 8.845 ± 0.064
AAATATTCTTGTTTAATACACACTGTAGTATTATAT [CACACA_site433] | 7.86 ± 0.57
TTAAATAGATAAACTAAACACACAAAAAAAAAAAAA [CACACA_site8308] | 7.96 ± 0.67
GAATAAGATAGATATACACACCATTATAAATATAAA [CACACA_site5392] | 7.86 ± 0.16
TTTTGTACTTCATGCGTGCACAGAAATATATTATAT | 10.5 ± 0.19
GCTAAAAGTATATGCACACACATATATATGCACATA [CACACA_site1635] | 10.3 ± 0.16
TAAATACTAATATGTACACACATATAGATATAGATT [CACACA_site7247] | 7.59 ± 0.22
TATGGTAAATACAACACACACACATATGTATTTATA [CACACA_site4666] | 7.91 ± 0.53
ATTTATTTATATAATACACACAAATATCTTAATTAA [CACACA_site3993] | 7.74 ± 0.38
TGGATATAAAACAACGTGCACTTGGTTGATTTTAAA [GTGCAC_site9900] | 10.51 ± 0.064
TTTTGTACAAAAATAATGCACACTATATCAAGTTTT [CACACA_site3595] | 11 ± 0.51
ATATAAAAAGGAAAAAGTACAAAAAAATGTTTGTGA [XGTACX_site8552] | 7.59 ± 0.57
AAGAAAATATATTCACATGAAGAATTAAAATAAAAC [TGCATGCA_negctrl_site119] | 7.78 ± 0.59
TTTTTTTTTTTTTTTTTTGGTGAGAGAAGAAAATTC [CACACA_negctrl_site950] | 8.14 ± 0.79
TAGGCCTTAAATCGTGTGCACTTTTTTTTTTTTTTT | 9.775 ± 0.092
TATGTGCCAAAACACACACACATATATATATATATA [CACACA_site469] | 9.53 ± 0.54
CAAATTATTATTTAAGCACACATGTTTATTTTTTTT [CACACA_site2672] | 8.57 ± 0.14
AAATATATCAATATATATATATATATATATATATAT [XGTACX_negctrl_site544] | 9.06 ± 0.36
AAGCATACATCAAGCACACACACACCCACACCCACA [CACACA_site372] | 8.17 ± 0.59
TATATATATATAATTTGTACATATATATGTAACAAT [XGTACX_site8728] | 9.21 ± 0.49
TTCTGCTACCACTTGAATGTCAATGAAATTAAAAAA [CACACA_negctrl_site1164] | 8.17 ± 0.4
ATTTATAAAACAGGCACACATATAATAAATTTTATA [CACACA_site2600] | 7.95 ± 0.28

Sequence | gcPBM binding intensity (ln)
TAATAATTATTGCACGCACACAAAAACCTATAGATT [CACACA_site2931] | 11 ± 0.67
ACTATAAATATTTATAAACACACAAATATATATATT [CACACA_site7891] | 7.88 ± 0.47
ATTTTTTTTTTTACAGTGGAACCATATTTGCTCATT [CACACA_negctrl_site940] | 7.75 ± 0.67
ATACAATACACCGAACGTACATAAATCTATCTTTTA [XGTACX_site3668] | 8.05 ± 0.52
ATAATAAATGATAGCACACATATGTACATATATACA [CACACA_site864] | 8.21 ± 0.28
AATACCGGAAAGCAAACACACATTTTAAAACCATAA [CACACA_site3862] | 7.86 ± 0.39
GATTATCTATCGCTTGAATGAAATGAAATCATGCAA [GTGCAC_negctrl_site471] | 7.36 ± 0.62
AAATAAAATAAAAGCACACAAAATGTAAATAATTAT [CACACA_site2775] | 8.44 ± 0.36
GTATGTAATATTTTAGTGCAAAAAAAAAAAAAAAAA [GTGCAC_site9790] | 10.3 ± 0.4
AAAGAAATAAAAAAAAGTACACAATTATAAATATAT [XGTACX_site3428] | 8.05 ± 0.32
AAAATACTTTGAATTTGTACATATAGACATAATATT [XGTACX_site6181] | 7.49 ± 0.4
CGCGAACATACATACACACACATATTTATATAGGTA [CACACA_site6241] | 7.62 ± 0.54
AACATACCCATATACACACACACATAAATACAGATA [CACACA_site4744] | 8.07 ± 0.35
ATGTTAATCATTAAAAATAAAGTTTAATATAAGAAT [XGTACX_negctrl_site155] | 7.58 ± 0.66
CAAAACAAGCAAAAATGTACTTGATAAATATTTTCT [XGTACX_site1776] | 7.5 ± 0.46
ATTTAATTCTTTTGTTATAAAATTTTAGTATATATA [CACACA_negctrl_site1649] | 7.86 ± 0.57
CAAAAAAAATTATACACACACACACCGATATATATA [CACACA_site4719] | 8.2 ± 0.79
TTTATATATCAATACATTATGTATTAAGTCTTACAT [TGCATGCA_negctrl_site499] | 7.43 ± 0.64
GGTATATAAAAATATTGTACGAAAATATGCATATAA [XGTACX_site2501] | 7.92 ± 0.59
TTTTAATTAAAAAAATATATAATAAAATTAAATTAT [CACACA_negctrl_site95] | 7.36 ± 0.52
AAATATAAAAAATATACACACATATAAAATCTATAT [CACACA_site7406] | 7.53 ± 0.59
TTTTAAAAAAAACAAAAACATTGTCATATGGAAAAT [CACACA_negctrl_site297] | 7.86 ± 0.69

Sequence | gcPBM binding intensity (ln)
GTATGTTAATTTAATTGTACAAAAAGATACACTGAT [XGTACX_site5710] | 8.13 ± 0.44
AGGAACAATATATTTGCACACAAAAAATATATATTT [CACACA_site3316] | 9.205 ± 0.021
TATATAAATGTTATCACACACTCACGTTTGACAAAA [CACACA_site6468] | 7.67 ± 0.6
TTTACAATATAAAATACACACACACTAACATATATT [CACACA_site9231] | 7.88 ± 0.51
TCCTTTTTTAAAAGTTGTACATTATTGTTATTTGTT [XGTACX_site4686] | 7.76 ± 0.46
ATACAATAAAATAAGTTTGAATAAAATTAAATATAT [CACACA_negctrl_site877] | 7.47 ± 0.62
GAAGGAAATAATAGTAGTACAAATGGTAAGAAATAT [XGTACX_site5845] | 8.39 ± 0.78
TTCCTCTTAATATGTGCACACTAAATTATAACCTAA [CACACA_site5751] | 10.47 ± 0.064
GAGAAAGATATATACACACACATAAATATGTACATA [CACACA_site6975] | 7.68 ± 0.47
TTTACAATATTAAAATGTACATATAAAATAAATAAA [XGTACX_site8367] | 7.92 ± 0.42
TTTCCCAAGCTTATTACACACAAGTAGAATAAGCTT [CACACA_site1561] | 7.53 ± 0.51
TATATAGGTAAAAAATGTACTTATATTGAATATATT [XGTACX_site4414] | 7.62 ± 0.66
GATATCAAATATAAATGTACAAATTATATATACATA [XGTACX_site3228] | 7.42 ± 0.29
TTCTTATTTATTTTCTTCTCCTTCCTCAAATTTTTT [GTGCAC_negctrl_site592] | 7.93 ± 0.71
AATTTGTTAATATTTTGTACACATAATATAAAAACA [XGTACX_site2224] | 7.86 ± 0.28
TATATGTTATATTGGACACACACAATAAACATTATG [CACACA_site8480] | 7.71 ± 0.43
AAACATAAAGAAAAAAAAAATATATATTTATTTATT [GTGCAC_negctrl_site357] | 7.44 ± 0.54
ATAAAAATGGTGTTAACACACACATATATATATATA [CACACA_site8089] | 9.51 ± 0.22
TTATTTAAATATTGATGTACTCTCCTTATTATAATA [XGTACX_site1240] | 7.89 ± 0.5
GGTAATTATTTTGGTTGTACTCAAATATATAATATT [XGTACX_site291] | 8.13 ± 0.33
ATGTCATAAATGTACGCACACATACATAAACATATA [CACACA_site4530] | 8.52 ± 0.14
TTCATTTTAATTTCCAGTACACATATATATACATAT [XGTACX_site558] | 8.11 ± 0.27

Sequence | gcPBM binding intensity (ln)
ATTTATTTCTATAATACACACAAATATCTTAATTAA [CACACA_site7801] | 7.71 ± 0.44
ATTATATTTATGTTGGTGCATTATACATGAAATTTA | 11.5 ± 0.43
AATATAATACAATATTGTACATAATATAAATTAAAA [XGTACX_site4064] | 7.59 ± 0.44
TTATACTGTTTCAGAAAAATAAAGAATGAAAGTATT [XGTACX_negctrl_site230] | 8.07 ± 0.49
TTTTTATATTCCCCCAGTACATATATAATAGTAGTA [XGTACX_site7927] | 9.435 ± 0.007
AATAAAAAAATAAAATGTACATACAAATAAATAAAT [XGTACX_site5153] | 7.8 ± 0.67
TGCAACAAAATAAACACACACACACCCCCACAAAAA [CACACA_site3388] | 10.2 ± 0.26
TATTTTAATGAAGCATTTAAGGGAAAAAAAAAAAAA [TGCATGCA_negctrl_site606] | 8.22 ± 0.64
GTATACCAACATATTATACACACCTTTATATTTTTT [CACACA_site2153] | 7.88 ± 0.7
ATAAGATGATGGAACTGTAATATATATATATATATA [CACACA_negctrl_site839] | 9.23 ± 0.38
TTTAAGAGTTGCACACGTACAAAAAAAAAAAAAAAA [XGTACX_site7406] | 8.545 ± 0.064
TTGTATACATAAAATGGTACAGAATATATAATTCTA [XGTACX_site7236] | 7.45 ± 0.61
TTAATTAAAATTTATACATGCATAAAAGAAATACAC [TGCATGCA_site537] | 8.62 ± 0.37
ATTACATGTTACTTAACACACATCTGGTGAAATAAT [CACACA_site171] | 7.91 ± 0.54
GTAATGAAACATTGCACACATATAATAATATAATAT [CACACA_site1422] | 8.685 ± 0.035
ATTTTTTTCTTTTCTTTTTTCTTTTTTTTTTTTGGT [CACACA_negctrl_site1146] | 7.46 ± 0.76
TTTACGCTATAGGAGAGTACTTATAAAATCCTGTGT [XGTACX_site2364] | 7.7 ± 0.55
TTCATATATTTTAAAGCATGCATTCATCTTATAGTT [TGCATGCA_site800] | 7.92 ± 0.59
AGACGAAAATAATAAAGTACTAAAAAAAAAAAAAAA [XGTACX_site927] | 8.01 ± 0.54
TACAAAATATATATGACACACACAAAAAAAGTATAT [CACACA_site8455] | 7.89 ± 0.69
TATTTTTCCATTGGGGGTACATGTGTTATATTTATT [XGTACX_site5914] | 9.865 ± 0.049
ATATATATGCATATATGTACTTAAAATATAAAGGCA [XGTACX_site3256] | 7.93 ± 0.49
